PubChem BioAssay AID686978 (National Center for Advancing Translational Sciences (NCATS), 2013)
The campaign covered roughly 420,000 compounds. About 64,000 (15%) were called active. The inconclusive results got no clear call from the source; some entries with a clear call stand among them for comparison. Calls follow the shape of the dose curve; as a rule, active = well fitted inhibition curve with a large enough effect; inconclusive = small, poorly fitted or top-dose-only effect; inactive = flat fitted curve, though single readings scatter. Potencies of inconclusive entries are left out as doubtful fits.

Assay: qHTS for Inhibitors of human tyrosyl-DNA phosphodiesterase 1 (TDP1): qHTS in cells in absence of CPT; also: nearly all actives have a fitted effect of over 55% in size
Conditions: DT40 Tdp1-/- hTDP1 cells, no CPT, ATP luminescence, 48 h; series mostly up to 46.2 µM
Procedure, shortened: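 Camptothecin absent (DMSO only). Human TDP1-complemented DT40 knockout cells, 400 cells/well, 37 °C for minimum 48 hr; ATP measured via CellTiter-Glo, 30 min dark incubation, luminescence.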
Potency is read from the fitted curve at half-maximal effect; tags tell the direction and shape of the fitted curve.

Row | Compound | Potency
1 | Cc1ccc(Cl)cc1N1CCN(C(=O)c2ccc(NC(=O)c3nsc4ccccc34)cc2)CC1 | active: 18.4 µM
2 | COC(=O)c1ccccc1NC(=O)Cc1ccccc1OC | inconclusive [inhibitor, single point]
3 | O=C1C=CC(=O)c2c(O)c(N3CCN(CCOCCO)CC3)c(Br)c(O)c21 | active: 0.92 µM
4 | Cc1cc(C)nc(SCC(=O)Nc2ncc(C(F)(F)F)cc2Cl)n1 | inconclusive [inhibitor, single point]
5 | Cc1ccc(NC(=O)c2oc3ccc(S(=O)(=O)N4CCC5(CC4)OCCO5)cc3c2C)cc1C | inconclusive [inhibitor, partial curve, poor fit]
6 | O=C(c1ccccc1)N1CC(COc2ccccc2)OC(c2cccnc2)O1 (stereo not drawn) | inconclusive [inhibitor, partial curve]
7 | CCC(=O)N1CCN(c2nc(CC)nc3sc4c(c23)CCCC4)CC1 | inconclusive [inhibitor, partial curve, poor fit]
8 | COc1ccc(CNC(=O)C[C@H]2C[C@H](C(=O)N3CCCCC3)[C@@]3(CCc4ccccc4)c4[nH]c5cc(-c6ccco6)ccc5c4CCN3C2=O)cc1OC | inconclusive [inhibitor, single point]
9 | Cc1cccc(C(=O)NNC(=O)C23CC4CC(CC(C4)C2)C3)c1O | inconclusive [inhibitor, single point]
10 | Cc1nn(S(=O)(=O)c2ccc(C(C)(C)C)cc2)c(C)c1S(=O)(=O)N1CCCCCC1 | inactive
11 | Cc1ccc(-c2n[nH]c3c2C(c2ccc(C(C)(C)C)cc2)NC3=O)cc1 (stereo not drawn) | inactive
12 | Cc1cc(C)cc(Nc2ncnc3nc[nH]c23)c1 | inactive
13 | Cc1cc(C)c(NC(=O)COC(=O)c2cccc3c2C(=O)c2ccccc2C3=O)c(C)c1 | inconclusive [inhibitor, single point]
14 | COCCNC(=O)CCn1c(=O)c2cc(OC)c(OC)cc2n(CC(=O)Nc2ccc(Cl)cc2F)c1=O | inactive
15 | Cc1nnc(N2CCC(C(=O)N3CCCCCC3)CC2)c2nn(-c3ccc(Cl)cc3)c(C)c12 | inconclusive [inhibitor, single point]
16 | N#C/C(=C\c1ccc(-c2cccc(Cl)c2)o1)C(=O)Nc1cccc2cccnc12 | inconclusive [inhibitor, single point]
17 | Cc1cccc(NC(=O)c2ccc(COc3ccc(Cl)cc3Cl)o2)n1 | inconclusive [inhibitor, single point]
18 | COc1ccc(OCCSc2nnc(CC(=O)Nc3cccc(Cl)c3Cl)n2C)cc1 | inactive
19 | CNc1ccccc1C(C)(C)c1ccn[nH]1 | inconclusive [inhibitor, partial curve, poor fit]
20 | O=C(C1CCCN(S(=O)(=O)c2ccc(F)cc2)C1)N(Cc1cccs1)C1CC1 (stereo not drawn) | active: 18.4 µM
21 | O=C(Nc1ccc(Br)cc1)C1CC(c2c(F)cccc2Cl)=NO1 (stereo not drawn) | inconclusive [inhibitor, single point]
22 | Cc1ccc(NS(=O)(=O)c2c(C(=O)N3CCCCCC3)c(C)n(C)c2C)cc1C | inconclusive [inhibitor, single point]

Row | Compound | Potency
23 | CCC1CN(C(=O)N2CCC(C(=O)NCc3ccc(N(C)C)cc3)CC2)c2ccccc2O1 (stereo not drawn) | inconclusive [inhibitor, single point]
24 | CCOC(=O)c1cn(-c2ccccc2)nc1-c1ccncc1 | inactive
25 | COc1ccc(N2C(=O)c3ccc(C(=O)Nc4ccc(NC(C)=O)cc4)cc3C2=O)cc1 | inactive
26 | COC(=O)Cn1c2ccc(C)cc2c2nc(C)sc21 | inactive
27 | CCN(CC(=O)Nc1ccccc1C(F)(F)F)C(=O)CCc1nc2ccccc2c(=O)[nH]1 | inactive
28 | NC(=O)C1(c2ccccc2)CCCN1C(=O)c1ccc(Br)cc1 (stereo not drawn) | inconclusive [inhibitor, single point]
29 | CCOC(=O)c1ccc(N2CCN(c3cc(C)ccc3C)CC2)c(NC(=O)Nc2ccc(CC)cc2)c1 | inconclusive [inhibitor, single point]
30 | CN(Cc1ccc(F)cc1)C(=O)c1cc(COc2ccc(-n3cncn3)cc2)on1 | active: 16.4 µM
31 | CCOC(=O)c1ccccc1NC(=O)COc1coc(CN2CCc3ccccc32)cc1=O | inconclusive [inhibitor, single point]
32 | O=C(Nc1ccccc1)Nc1cccc(Cl)c1Cl | inconclusive [inhibitor, single point]
33 | COc1ccc(NC(=O)C2CCN(c3nc(C)cc(C)n3)CC2)cc1 | inactive
34 | CC1(C)CC(=O)C2=C(C1)N1C(=C(C#N)C2c2ccccc2Cl)N=C(N)c2ccccc21 (stereo not drawn) | inconclusive [inhibitor, single point]
35 | C[C@H]1CN([C@@H](C)CO)C(=O)CCCn2nncc2CO[C@H]1CN(C)C(=O)Nc1ccc2c(c1)OCO2 | inactive
36 | Cc1ccc(C(=O)Nc2ccc(F)c(S(=O)(=O)N3CCOCC3)c2)s1 | inconclusive [inhibitor, single point]
37 | COc1ccc(CCC(=O)NNC(=S)NCc2ccc(F)cc2)cc1 | inconclusive [inhibitor, partial curve]
38 | CCCNc1nc(C)cc(-c2cc(-c3ccccc3)on2)n1 | inconclusive [inhibitor, single point]
39 | CCn1cc2nc(SCC(=O)Nc3ccc(OC)c(OC)c3)n(Cc3ccc(Cl)cc3)c(=O)c2n1 | inconclusive [inhibitor, single point]
40 | CCOC(=O)c1ccc2nc(C)c(CCC(C)=O)c(Cl)c2c1 | inactive
41 | CN(C(=O)C1CCN(c2ncnc3c2nc2n3CCCCC2)CC1)C1CCCCC1 | inconclusive [inhibitor, single point]
42 | CN(C)c1ccc(-c2ccc3ncnc(N4CCNCC4)c3c2)cc1 | inconclusive [inhibitor, single point]
43 | O=C(Cn1ncc2c(=O)oc3ccccc3c21)NCCc1ccsc1 | inconclusive [inhibitor, single point]
